Measurements reported in PubChem BioAssay.
This list was built around the results that the source calls inconclusive (neither active nor inactive); the mix of calls is not that of the screen. Calls of active or inactive are those of the source.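 The calls were made as follows: active = thallium flux rate significantly above the same plate's solvent-only control wells, beyond their mean plus 3 SD; inconclusive = the two replicate wells gave conflicting results; inactive = the rest.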

test: compound effects on native HEK Tl+ uptake – HEK cells, counterscreen 1, counter-screen for KCC2 modulator project, confirmation (AID 1716); settings: HEK293 parental cells, thallium flux FluoZin2, ouabain; at 10 µM; baseline-ratio fluorescence slope, 10–20 s after thallium

Row | Structure (SMILES) | thallium flux rate (normalised fluorescence)
1 | O=[N+]([O-])c1ccc(NC2CCN(Cc3ccccc3)CC2)c([N+](=O)[O-])c1 | inactive: 0.00731
2 | CC/C(=N\NC(=S)Nc1cccc(C)c1)c1ccccc1 | inconclusive: 0.0504
3 | N#C/C(=N\Nc1ccccc1Cl)C(=O)c1ccccc1 | inconclusive: 0.00551
4 | CC1(C)Cc2c(C#N)c(N3CCN(C(=O)c4ccco4)CC3)nc(Cc3ccccc3)c2CO1 | inconclusive: 0.00313
5 | N#Cc1nc(-c2ccco2)oc1N1CCC(Cc2ccccc2)CC1 | inactive: 0.00702
6 | c1ccc(-c2cn3nc4c(nc3n2)CCCC4)cc1 | inconclusive: 0.00588
7 | CCOC(=O)c1c2c([nH]c(=S)c1C#N)CCCC2 | inconclusive: 0.00585
8 | Cc1ccc(Cn2c(=S)[nH]c3ccc(N4CCOCC4)cc3c2=O)o1 | inconclusive: 0.0149
9 | O=S(=O)(Nc1c(S(=O)(=O)c2ccccc2)c2nc3ccccc3nc2n1C1CCCCC1)c1ccccc1 | inactive: 0.00386
10 | CCc1ccc(OCc2n[nH]c(=S)n2Cc2ccccc2)cc1 | active: 0.015
11 | Cn1c(-c2sc3cc(C(F)(F)F)cnc3c2-c2cccs2)n[nH]c1=S | active: 0.00991
12 | CN1CCN(S(=O)(=O)c2cccc(C(=O)Nc3nc(-c4ccccc4)cs3)c2)CC1 | inconclusive: 0.00769
13 | CCOc1ccc(-c2ccc(SCC(=O)Nc3nnc(CC)s3)nn2)cc1 | active: 0.0102
14 | CCC(OC(=O)C1=Cc2ccccc2OC1)C(=O)NCc1ccco1 (stereo not given) | inactive: 0.00751
15 | O=C(CSc1ccc(-c2ccc(F)cc2)nn1)N1CCCc2ccccc21 | inconclusive: 0.00606
16 | COc1ccc(NC(=S)NC(=O)/C=C/c2ccco2)cc1 | inconclusive: 0.00695
17 | Cc1csc(NC(=O)CSc2ccc(-c3ccccn3)nn2)n1 | inconclusive: 0.00644
18 | CC1(C)CC(=O)C2=C(C1)c1c(ccc3ccccc13)NC2c1cc([N+](=O)[O-])cc([N+](=O)[O-])c1O (stereo not given) | inconclusive: 0.00688
19 | CCOC(=O)c1c(-c2cccs2)csc1NC(=O)CCCC(=O)O | inconclusive: 0.00645
20 | S=C(NCCc1ccccc1)NN=C1CCCCCC1 | inconclusive: 0.00985

Row | Structure (SMILES) | thallium flux rate (normalised fluorescence)
21 | Cn1c(CCCOc2ccc(Cl)cc2Cl)n[nH]c1=S | inconclusive: 0.00727
22 | COc1ccccc1-c1cc(C(=O)N2CCCc3ccccc32)no1 | inconclusive: 0.00333
23 | COc1cc(OC)cc(C(=O)NCCSCc2ccco2)c1 | inconclusive: 0.00796
24 | C[C@@H](C(=O)Nc1ccc2ccccc2c1)[C@@H]1C[C@@]1(C)[C@@H](NC(=O)c1cccnc1)c1ccccc1 | inactive: 0.00775
25 | CCc1ccc(Nc2nnc(SCC(=O)NCCN3C(=O)CSC3=O)s2)cc1 | inactive: 0.00675
26 | Cc1nnc(SC(C(=O)Nc2cc(Cl)cc(Cl)c2)c2ccccc2)[nH]c1=O (stereo not given) | active: 0.00486
27 | CC(/C=N/n1c(-c2cc(C)[nH]n2)n[nH]c1=S)=C\c1ccccc1 | inconclusive: 0.00903
28 | Cn1nnnc1SCC1=C(C(=O)O)N2C(=O)C(NC(=O)C3CC3c3ccccc3)C2SC1 (stereo not given) | inconclusive: 0.00854
29 | CNC(=S)N(Cc1cc2cc(OC)c(OC)cc2[nH]c1=O)C1CCCC1 | inconclusive: 0.00653
30 | COc1ccc(-c2csc(NC(=O)c3ccccc3NS(=O)(=O)c3ccc(F)c(F)c3)n2)cc1 | inconclusive: 0.00955
31 | CSc1ncnc2sc(C)c(C)c12 | active: 0.0146
32 | COC(=O)C1=NN(C(=O)c2ccc(Br)cc2)C(O)(C(C)(C)C)C1 (stereo not given) | inconclusive: 0.0493
33 | CC(=O)c1cccc(NC(=S)NC(=O)c2ccc(C)cc2)c1 | active: 0.0115
34 | COc1ccc(-c2nc(Cn3c(SCc4ccc(F)cc4)nc4ccncc43)c(C)o2)cc1OC | inconclusive: 0.00628
35 | Cc1noc(/C=C/N(C)C)c1S(=O)(=O)N(C)CC(=O)NC1CCCCC1 | inconclusive: 0.00797
36 | O=C(Nc1nc(-c2nc3ccccc3s2)cs1)C1COc2ccccc2O1 (stereo not given) | inconclusive: 0.00887
37 | c1ccc(CC2CCN(c3nnnn3-c3ccccc3)CC2)cc1 | inconclusive: 0.00571
38 | CCC(C)(C)n1nnnc1C(c1cccnc1)N1CCN(c2cccc(C(F)(F)F)c2)CC1 (stereo not given) | inconclusive: 0.00626
39 | CCC(C(=O)Nc1ccsc1C(=O)OC)c1ccccc1 (stereo not given) | inconclusive: 0.00308
40 | Cc1ccc(Cl)cc1NC(=S)N/N=C/c1cccc2ccccc12 | inconclusive: 0.0238
